Results from the supplement of paper PMC3334620.
Over roughly 33,000 sequences, “E-score (-0.5 to 0.5)” has its median near -0.016; the highest 2% begin near 0.32. The list shows a part of the results.

target: T1, Stp1 (UniProt B3LFK1); test: PBM E-score (8-mer binding enrichment) (E-score (-0.5 to 0.5)); higher = stronger / more preferred TF binding; most listed sequences are background and not binding sites; details: protein concentration: 200 nM; construct: GST-full length
T1 sequence: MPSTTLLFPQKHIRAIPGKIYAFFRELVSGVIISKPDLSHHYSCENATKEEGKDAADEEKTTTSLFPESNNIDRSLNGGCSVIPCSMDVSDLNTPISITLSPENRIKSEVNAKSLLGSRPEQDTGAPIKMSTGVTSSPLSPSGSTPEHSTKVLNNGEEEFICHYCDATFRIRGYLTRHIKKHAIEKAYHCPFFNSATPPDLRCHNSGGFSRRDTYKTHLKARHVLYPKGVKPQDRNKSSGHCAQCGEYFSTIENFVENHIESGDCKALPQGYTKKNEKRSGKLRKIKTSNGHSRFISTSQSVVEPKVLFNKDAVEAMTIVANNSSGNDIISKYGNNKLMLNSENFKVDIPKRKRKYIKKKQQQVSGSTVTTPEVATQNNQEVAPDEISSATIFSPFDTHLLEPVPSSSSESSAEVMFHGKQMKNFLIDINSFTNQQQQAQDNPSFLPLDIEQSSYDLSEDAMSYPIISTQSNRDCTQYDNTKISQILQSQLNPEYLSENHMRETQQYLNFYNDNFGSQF
Procedure, shortened: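 Masliner-normalised scans of fluorescent anti-GST signal were the basis for scoring. That signal came from GST-tagged yeast transcription factors applied at about 100-200 nM to double-stranded universal all-10-mer Agilent arrays on fresh or once-stripped slides. Each ungapped eight-base word, pooled with its reverse complement, received an E-score from the Universal PBM Analysis Suite.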

Row | Sequence | PBM E-score
1 | ATAGCGAC | -0.174
2 | ACATGTCT | -0.105
3 | ATATACGA | -0.0481
4 | ATTCGTCC | 0.227
5 | CGCAGCGC | 0.239
6 | ACGAAACT | 0.126
7 | AGAGGGCA | 0.055
8 | GCGCCCAC | 0.192
9 | CGCATTCA | 0.123
10 | GTCTCTTA | 0.0525
11 | CTAGTGGA | -0.261
12 | AATGCTAC | 0.129
13 | AACCTAGA | -0.0605
14 | GAACCGCA | 0.166
15 | ATGACTGA | -0.164
16 | AAGCAACG | 0.134
17 | ATGTAGCC | -0.153
18 | ACATTGGA | -0.205
19 | ACGAAGCT | -0.0462
20 | AGAGCCGC | 0.44
21 | ATTTAATG | 0.225
22 | CGCGCCAA | 0.132

Row | Sequence | PBM E-score
23 | TGAAGGAA | 0.0407
24 | ATATCACC | 0.0601
25 | ACGGGTCG | 0.163
26 | CCGCAACA | 0.197
27 | CGCATCAG | 0.0357
28 | CCGTTCTA | 0.237
29 | AGCGCTGA | -0.0259
30 | CATGGCAG | 0.128
31 | ATTCTTGA | 0.0236
32 | ATTGCCCG | -0.0444
33 | GCTGATCA | -0.118
34 | TATTGAAA | 0.178
35 | GGTCCTAC | -0.113
36 | ATGATCAA | 0.121
37 | CCGAGCCG | 0.334
38 | ATCAACCA | -0.0725
39 | CCGGTTAC | -0.0144
40 | AATGGGCG | -0.138
41 | AAGAGTTA | -0.148
42 | CGAGCCTA | -0.0212
43 | AAACAGTA | -0.0184
44 | GCATATGA | 0.171

Row | Sequence | PBM E-score
45 | GACACAAC | 0.0796
46 | GTCACCAA | -0.2
47 | AATGGGGA | -0.238
48 | TGGGGGAA | -0.386
49 | ACGCGCTG | 0.119
50 | CCACGGTA | -0.0638
51 | ACCGATCC | -0.157
52 | AAACGTTT | 0.0331
53 | CTGCACGA | -0.152
54 | GCCTCCAC | -0.182
55 | AGCTCGTG | -0.0692
56 | CATACCGC | 0.0691
57 | CCTTTAGC | -0.0318
58 | ACCCGTCC | -0.207
59 | CTGTGCCC | 0.242
60 | AGTGTTCA | 0.0294
61 | GAGGAGAC | -0.143
62 | CCTCGATC | -0.18
63 | CGATACGC | 0.0924
64 | TCCGGGCA | -0.149
65 | CCGAGTTC | 0.0434
66 | TCCTAGAA | -0.0129

Row | Sequence | PBM E-score
67 | ATAGGGCC | -0.0431
68 | AAGCGCGC | 0.226
69 | ACGTGCTG | -0.0413
70 | GAAACCAA | -0.0238
71 | AGGGTTAT | -0.0286
72 | GCTATGTA | -0.0174
73 | CCATGAGA | -0.118
74 | CAAAATGC | 0.122
75 | AGCCTGTC | -0.054
76 | AATATGGC | 0.121
77 | AGTGCACA | -0.0587
78 | CTAACGCC | 0.215
79 | TACTTAGA | -0.022
80 | ATTCTACA | 0.221
81 | AGAGGGCC | -0.233
82 | AAATTGGG | -0.00017
83 | ACCAGGCA | -0.231
84 | ACATTGGG | -0.255
85 | GTGGGATA | -0.0825
86 | ATCAGTGG | -0.124
